# This is one part of the list.
# How the values were obtained:
# Assay in all cases: glycan array binding signal (z-score within array); higher = stronger binding
# Settings in all cases: glycan notation: IUPAC condensed, linker removed
# [1] = biological target: Gal(b1-4)GlcNAc(b1-3)Gal(b1-4)GlcNAc(b1-2)[Gal(b1-4)GlcNAc(b1-3)Gal(b1-4)GlcNAc(b1-6)]Man(a1-6)[Gal(b1-4)GlcNAc(b1-3)Gal(b1-4)GlcNAc(b1-2)Man(a1-3)]Man(b1-4)GlcNAc(b1-4)GlcNAc
# Summary of the method: (§1)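 The binding signal is a Z-score computed within each array. Data were drawn from 3228 arrays in the Consortium for Functional Glycomics database, restricted to those with a known protein sequence. Scores were averaged over arrays of the same protein sequence at different concentrations or buffers, and over linkers, and negative values can be taken as non-binding.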
# [2] = biological target: Gal(b1-4)GlcNAc(b1-3)Gal(b1-4)GlcNAc(b1-2)[Gal(b1-4)GlcNAc(b1-3)Gal(b1-4)GlcNAc(b1-6)]Man(a1-6)[Gal(b1-4)GlcNAc(b1-3)Gal(b1-4)GlcNAc(b1-2)Man(a1-3)]Man(b1-4)GlcNAc(b1-4)[Fuc(a1-6)]GlcNAc
# Summary of the method: as §1
# [3] = biological target: Gal(b1-4)GlcNAc(b1-3)Gal(b1-4)GlcNAc(b1-3)Gal(b1-4)GlcNAc
# Summary of the method: as §1
# [4] = biological target: Gal(b1-4)GlcNAc(b1-3)Gal(b1-4)GlcNAc(b1-3)Gal(b1-4)GlcNAc(b1-2)Man(a1-3)[Gal(b1-4)GlcNAc(b1-3)Gal(b1-4)GlcNAc(b1-3)Gal(b1-4)GlcNAc(b1-2)Man(a1-6)]Man(b1-4)GlcNAc(b1-4)GlcNAc
# Summary of the method: as §1
# [5] = biological target: Gal(b1-4)GlcNAc(b1-3)Gal(b1-4)GlcNAc(b1-3)Gal(b1-4)GlcNAc(b1-2)Man(a1-3)[Gal(b1-4)GlcNAc(b1-3)Gal(b1-4)GlcNAc(b1-3)Gal(b1-4)GlcNAc(b1-2)Man(a1-6)]Man(b1-4)GlcNAc(b1-4)[Fuc(a1-6)]GlcNAc
# Summary of the method: as §1
# [6] = biological target: Gal(b1-4)GlcNAc(b1-3)Gal(b1-4)GlcNAc(b1-3)Gal(b1-4)GlcNAc(b1-2)[Gal(b1-4)GlcNAc(b1-3)Gal(b1-4)GlcNAc(b1-3)Gal(b1-4)GlcNAc(b1-6)]Man(a1-6)[Gal(b1-4)GlcNAc(b1-3)Gal(b1-4)GlcNAc(b1-3)Gal(b1-4)GlcNAc(b1-2)Man(a1-3)]Man(b1-4)GlcNAc(b1-4)[Fuc(a1-6)]GlcNAc
# Summary of the method: as §1
# [7] = biological target: Gal(b1-4)GlcNAc(b1-3)Gal(b1-4)GlcNAc(b1-3)Gal(b1-4)GlcNAc(b1-3)Gal(b1-4)GlcNAc(b1-2)Man(a1-3)[Gal(b1-4)GlcNAc(b1-3)Gal(b1-4)GlcNAc(b1-3)Gal(b1-4)GlcNAc(b1-3)Gal(b1-4)GlcNAc(b1-2)Man(a1-6)]Man(b1-4)GlcNAc(b1-4)GlcNAc
# Summary of the method: as §1
# [8] = biological target: Gal(b1-4)GlcNAc(b1-3)Gal(b1-4)GlcNAc(b1-3)Gal(b1-4)GlcNAc(b1-3)Gal(b1-4)GlcNAc(b1-2)Man(a1-3)[Gal(b1-4)GlcNAc(b1-3)Gal(b1-4)GlcNAc(b1-3)Gal(b1-4)GlcNAc(b1-3)Gal(b1-4)GlcNAc(b1-2)Man(a1-6)]Man(b1-4)GlcNAc(b1-4)[Fuc(a1-6)]GlcNAc
# Summary of the method: as §1
# [9] = biological target: Gal(b1-4)GlcNAc(b1-3)Gal(b1-4)GlcNAc(b1-3)Gal(b1-4)GlcNAc(b1-3)Gal(b1-4)GlcNAc(b1-2)[Gal(b1-4)GlcNAc(b1-3)Gal(b1-4)GlcNAc(b1-3)Gal(b1-4)GlcNAc(b1-3)Gal(b1-4)GlcNAc(b1-6)]Man(a1-6)[Gal(b1-4)GlcNAc(b1-3)Gal(b1-4)GlcNAc(b1-3)Gal(b1-4)GlcNAc(b1-3)Gal(b1-4)GlcNAc(b1-2)Man(a1-3)]Man(b1-4)GlcNAc(b1-4)[Fuc(a1-6)]GlcNAc
# Summary of the method: as §1
# [10] = biological target: Gal(b1-4)GlcNAc(b1-3)Gal(b1-4)GlcNAc(b1-3)Gal(b1-4)GlcNAc(b1-3)Gal(b1-4)GlcNAc(b1-3)Gal(b1-4)GlcNAc(b1-2)Man(a1-3)[Gal(b1-4)GlcNAc(b1-3)Gal(b1-4)GlcNAc(b1-3)Gal(b1-4)GlcNAc(b1-3)Gal(b1-4)GlcNAc(b1-3)Gal(b1-4)GlcNAc(b1-2)Man(a1-6)]Man(b1-4)GlcNAc(b1-4)GlcNAc
# Summary of the method: as §1
# [11] = biological target: Gal(b1-4)GlcNAc(b1-3)Gal(b1-4)GlcNAc(b1-3)Gal(b1-4)GlcNAc(b1-3)Gal(b1-4)GlcNAc(b1-3)Gal(b1-4)GlcNAc(b1-2)Man(a1-3)[Gal(b1-4)GlcNAc(b1-3)Gal(b1-4)GlcNAc(b1-3)Gal(b1-4)GlcNAc(b1-3)Gal(b1-4)GlcNAc(b1-3)Gal(b1-4)GlcNAc(b1-2)Man(a1-6)]Man(b1-4)GlcNAc(b1-4)[Fuc(a1-6)]GlcNAc
# Summary of the method: as §1
# [12] = biological target: Gal(b1-4)GlcNAc(b1-3)Gal(b1-4)GlcNAc(b1-3)Gal(b1-4)GlcNAc(b1-3)Gal(b1-4)GlcNAc(b1-3)Gal(b1-4)GlcNAc(b1-2)[Gal(b1-4)GlcNAc(b1-3)Gal(b1-4)GlcNAc(b1-3)Gal(b1-4)GlcNAc(b1-3)Gal(b1-4)GlcNAc(b1-3)Gal(b1-4)GlcNAc(b1-6)]Man(a1-6)[Gal(b1-4)GlcNAc(b1-3)Gal(b1-4)GlcNAc(b1-3)Gal(b1-4)GlcNAc(b1-3)Gal(b1-4)GlcNAc(b1-3)Gal(b1-4)GlcNAc(b1-2)Man(a1-3)]Man(b1-4)GlcNAc(b1-4)[Fuc(a1-6)]GlcNAc
# Summary of the method: as §1
# [13] = biological target: Gal(b1-4)GlcNAc(b1-3)Gal(b1-4)GlcNAc(b1-3)Gal(b1-4)GlcNAc(b1-3)Gal(b1-4)GlcNAc(b1-3)Gal(b1-4)GlcNAc(b1-3)Gal(b1-4)GlcNAc(b1-2)Man(a1-3)[Gal(b1-4)GlcNAc(b1-3)Gal(b1-4)GlcNAc(b1-3)Gal(b1-4)GlcNAc(b1-3)Gal(b1-4)GlcNAc(b1-3)Gal(b1-4)GlcNAc(b1-3)Gal(b1-4)GlcNAc(b1-2)Man(a1-6)]Man(b1-4)GlcNAc(b1-4)GlcNAc
# Summary of the method: as §1
# [14] = biological target: Gal(b1-4)GlcNAc(b1-3)Gal(b1-4)GlcNAc(b1-3)GalNAc
# Summary of the method: as §1
# [15] = biological target: Gal(b1-4)GlcNAc(b1-3)Gal(b1-4)GlcNAc(b1-3)[Gal(b1-4)GlcNAc(b1-3)Gal(b1-4)GlcNAc(b1-6)]GalNAc
# Summary of the method: as §1
# [16] = biological target: Gal(b1-4)GlcNAc(b1-3)Gal(b1-4)GlcNAc(b1-6)[Gal(b1-3)]GalNAc
# Summary of the method: as §1
# [17] = biological target: Gal(b1-4)GlcNAc(b1-3)Gal(b1-4)[Fuc(a1-3)]GlcNAc(b1-3)Gal(b1-4)[Fuc(a1-3)]GlcNAc
# Summary of the method: as §1
# [18] = biological target: Gal(b1-4)GlcNAc(b1-3)GalNAc
# Summary of the method: as §1
# [19] = biological target: Gal(b1-4)GlcNAc(b1-3)[Fuc(a1-3)GlcNAc(b1-6)]Gal(b1-4)Glc
# Summary of the method: as §1
# [20] = biological target: Gal(b1-4)GlcNAc(b1-3)[Gal(b1-4)GlcNAc(b1-6)]Gal(b1-4)GlcNAc
# Summary of the method: as §1
# [21] = biological target: Gal(b1-4)GlcNAc(b1-3)[GlcNAc(b1-6)]Gal(b1-4)GlcNAc
# Summary of the method: as §1
# [22] = biological target: Gal(b1-4)GlcNAc(b1-6)Gal(b1-4)GlcNAc
# Summary of the method: as §1
# [23] = biological target: Gal(b1-4)GlcNAc(b1-6)GalNAc
# Summary of the method: as §1
# [24] = biological target: Gal(b1-4)GlcNAc(b1-6)[Gal(b1-3)]GalNAc
# Summary of the method: as §1
# [25] = biological target: Gal(b1-4)GlcNAc(b1-6)[Gal(b1-4)GlcNAc(b1-3)]GalNAc
# Summary of the method: as §1
# Gal(b1-4)GlcNAc6P = biological target: Gal(b1-4)GlcNAc6P
# Summary of the method: as §1
# Gal(b1-6)Gal = biological target: Gal(b1-6)Gal
# Summary of the method: as §1
# Gal3S(b1-3)GalNAc = biological target: Gal3S(b1-3)GalNAc
# Summary of the method: as §1
# Gal3S(b1-3)GlcNAc = biological target: Gal3S(b1-3)GlcNAc
# Summary of the method: as §1
# [26] = biological target: Gal3S(b1-3)[Fuc(a1-4)]GlcNAc
# Summary of the method: as §1
# Gal3S(b1-4)Glc = biological target: Gal3S(b1-4)Glc
# Summary of the method: as §1
# Gal3S(b1-4)Glc6S = biological target: Gal3S(b1-4)Glc6S
# Summary of the method: as §1
# Gal3S(b1-4)GlcNAc = biological target: Gal3S(b1-4)GlcNAc
# Summary of the method: as §1
# [27] = biological target: Gal3S(b1-4)[Fuc(a1-3)]Glc6S
# Summary of the method: as §1
# [28] = biological target: Gal3S(b1-4)[Fuc(a1-3)]GlcNAc
# Summary of the method: as §1
# [29] = biological target: Gal3S(b1-4)[Fuc(a1-3)]GlcNAc6S
# Summary of the method: as §1
# Gal3S4S(b1-4)GlcNAc = biological target: Gal3S4S(b1-4)GlcNAc
# Summary of the method: as §1
# Gal3S6S(b1-4)GlcNAc = biological target: Gal3S6S(b1-4)GlcNAc
# Summary of the method: as §1
# Gal3S6S(b1-4)GlcNAc6S = biological target: Gal3S6S(b1-4)GlcNAc6S
# Summary of the method: as §1
# Gal4S(b1-4)GlcNAc = biological target: Gal4S(b1-4)GlcNAc
# Summary of the method: as §1
# Gal4S6S(b1-4)GlcNAc = biological target: Gal4S6S(b1-4)GlcNAc
# Summary of the method: as §1
# Gal6P(b1-4)GlcNAc = biological target: Gal6P(b1-4)GlcNAc
# Summary of the method: as §1
# Gal6S(b1-3)GlcNAc = biological target: Gal6S(b1-3)GlcNAc
# Summary of the method: as §1
# Gal6S(b1-3)GlcNAc6S = biological target: Gal6S(b1-3)GlcNAc6S
# Summary of the method: as §1
# Gal6S(b1-4)Glc = biological target: Gal6S(b1-4)Glc
# Summary of the method: as §1
binder,measurement,setting,value
"MPA (Maclura pomifera), P18674 (protein) GVTFDDGAYTGIREINFEYNSETAIGGLRVTYDLNGMPFVAEDHKSFITGFKPVKISLEFPSEYIVEVSGYVGKVEGYTVIRSLTFKTNKQTYGPYGVTNGTPFSLPIENGLIVGFKGSIGYWLDYFSIYLSL",glycan array binding signal (z-score),[1],1.21
same,glycan array binding signal (z-score),[2],2.04
same,glycan array binding signal (z-score),[3],-0.271
same,glycan array binding signal (z-score),[4],8.11
same,glycan array binding signal (z-score),[5],0.437
same,glycan array binding signal (z-score),[6],2.44
same,glycan array binding signal (z-score),[7],0.324
same,glycan array binding signal (z-score),[8],4.26
same,glycan array binding signal (z-score),[9],0.593
same,glycan array binding signal (z-score),[10],0.258
same,glycan array binding signal (z-score),[11],-0.028
same,glycan array binding signal (z-score),[12],0.427
same,glycan array binding signal (z-score),[13],-0.46
same,glycan array binding signal (z-score),[14],1.15
same,glycan array binding signal (z-score),[15],4
same,glycan array binding signal (z-score),[16],2.93
same,glycan array binding signal (z-score),[17],-0.197
same,glycan array binding signal (z-score),[18],-0.203
same,glycan array binding signal (z-score),[19],-0.067
same,glycan array binding signal (z-score),[20],-0.185
same,glycan array binding signal (z-score),[21],-0.172
same,glycan array binding signal (z-score),[22],-0.251
same,glycan array binding signal (z-score),[23],-0.203
same,glycan array binding signal (z-score),[24],-0.192
same,glycan array binding signal (z-score),[25],-0.28
same,glycan array binding signal (z-score),Gal(b1-4)GlcNAc6P,-0.139
same,glycan array binding signal (z-score),Gal(b1-6)Gal,-0.265
same,glycan array binding signal (z-score),Gal3S(b1-3)GalNAc,-0.236
same,glycan array binding signal (z-score),Gal3S(b1-3)GlcNAc,-0.257
same,glycan array binding signal (z-score),[26],-0.185
same,glycan array binding signal (z-score),Gal3S(b1-4)Glc,-0.108
same,glycan array binding signal (z-score),Gal3S(b1-4)Glc6S,-0.112
same,glycan array binding signal (z-score),Gal3S(b1-4)GlcNAc,-0.109
same,glycan array binding signal (z-score),[27],0.049
same,glycan array binding signal (z-score),[28],-0.229
same,glycan array binding signal (z-score),[29],-0.226
same,glycan array binding signal (z-score),Gal3S4S(b1-4)GlcNAc,-0.227
same,glycan array binding signal (z-score),Gal3S6S(b1-4)GlcNAc,-0.234
same,glycan array binding signal (z-score),Gal3S6S(b1-4)GlcNAc6S,-0.22
same,glycan array binding signal (z-score),Gal4S(b1-4)GlcNAc,-0.253
same,glycan array binding signal (z-score),Gal4S6S(b1-4)GlcNAc,-0.203
same,glycan array binding signal (z-score),Gal6P(b1-4)GlcNAc,-0.561
same,glycan array binding signal (z-score),Gal6S(b1-3)GlcNAc,-0.244
same,glycan array binding signal (z-score),Gal6S(b1-3)GlcNAc6S,-0.349
same,glycan array binding signal (z-score),Gal6S(b1-4)Glc,-0.243
